Experimental data as given in article PMC4336329 (PLoS ONE, 2015).
The whole screen tested about 310,000 compounds, of which about 14,000 (4.5%) showed an effect of 50% or more. The effect is printed as a negative number. The list shows a part of the results.

molecular target: human ether-à-go-go-related gene (hERG) potassium channel (human, UniProt Q12809); experiment: primary screen, population patch clamp on CHO cells stably expressing hERG
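Further: peak tail current of the secondary pulse compared with the same well before compound.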

human ether-à-go-go-related gene (hERG) potassium channel, sequence (Q12809 whole entry, looked up): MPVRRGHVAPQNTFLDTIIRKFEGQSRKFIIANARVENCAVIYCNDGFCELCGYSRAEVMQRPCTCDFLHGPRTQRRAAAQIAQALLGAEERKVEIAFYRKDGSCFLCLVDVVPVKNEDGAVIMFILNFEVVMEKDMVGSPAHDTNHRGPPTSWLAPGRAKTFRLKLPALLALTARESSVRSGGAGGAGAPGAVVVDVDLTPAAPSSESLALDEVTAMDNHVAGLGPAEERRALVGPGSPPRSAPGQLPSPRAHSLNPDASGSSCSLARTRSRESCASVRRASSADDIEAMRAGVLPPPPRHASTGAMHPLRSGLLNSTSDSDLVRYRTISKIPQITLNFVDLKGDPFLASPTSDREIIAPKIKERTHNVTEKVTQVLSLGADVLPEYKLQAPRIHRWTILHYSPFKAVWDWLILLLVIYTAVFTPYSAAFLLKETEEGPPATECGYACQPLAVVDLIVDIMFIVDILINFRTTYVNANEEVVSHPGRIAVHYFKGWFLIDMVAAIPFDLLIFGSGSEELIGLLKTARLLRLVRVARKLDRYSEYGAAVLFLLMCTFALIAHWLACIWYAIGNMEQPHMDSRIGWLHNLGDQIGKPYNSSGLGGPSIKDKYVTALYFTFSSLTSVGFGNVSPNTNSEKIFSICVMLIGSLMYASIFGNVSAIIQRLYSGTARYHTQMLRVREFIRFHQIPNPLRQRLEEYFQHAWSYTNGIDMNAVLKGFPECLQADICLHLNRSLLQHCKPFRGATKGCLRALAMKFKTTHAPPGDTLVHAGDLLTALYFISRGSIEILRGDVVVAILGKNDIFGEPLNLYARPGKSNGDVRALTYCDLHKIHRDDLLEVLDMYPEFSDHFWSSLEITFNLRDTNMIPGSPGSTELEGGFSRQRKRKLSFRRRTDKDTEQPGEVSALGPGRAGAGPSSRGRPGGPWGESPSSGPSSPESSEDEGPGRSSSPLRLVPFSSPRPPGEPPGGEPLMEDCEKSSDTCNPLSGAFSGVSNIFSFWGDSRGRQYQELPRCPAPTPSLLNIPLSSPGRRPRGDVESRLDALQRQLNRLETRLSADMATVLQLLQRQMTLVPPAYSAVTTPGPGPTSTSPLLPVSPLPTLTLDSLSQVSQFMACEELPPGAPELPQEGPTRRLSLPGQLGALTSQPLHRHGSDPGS

| Structure (SMILES) | hERG current change (%, negative = inhibition) at 10uM [%] |
| --- | --- |
| CS(=O)(=O)N1CCCC(C(=O)Nc2ccccc2F)C1 (stereo not shown) | 20.4 |
| COc1ccc(N2CCCC2)c(NC(=O)COc2ccccc2Cl)c1 | 14.8 |
| Cc1cccc(NC(=O)c2ccc(NCCc3ccccc3)c([N+](=O)[O-])c2)c1 | 6.78 |
| COc1ccccc1NC(=O)COc1coc(CN2CCN(c3ccccc3)CC2)cc1=O | -60 |
| Cc1cc(C)nc(SCCn2c(N(C)Cc3ccccc3)nc3c2c(=O)n(C)c(=O)n3C)n1 | -11.3 |
| COc1ccc(OC)c(-c2csc(NC(=O)C3=NN(c4ccccc4)C(=O)CC3)n2)c1 | -1.6 |
| CNS(=O)(=O)c1cccc(C(=O)NNC(=O)CN(C)S(=O)(=O)c2ccc(Cl)cc2)c1 | 14 |
| CCc1ccc(-c2cc(C(=O)NCc3ccco3)c3ccccc3n2)s1 | -9.4 |
| CCS(=O)(=O)c1ccc2oc(SCC(=O)NCCC3=CCCCC3)nc2c1 | -43.1 |
| CCCCSC1=N/C(=C/c2ccsc2)C(=O)N1c1ccccc1 | 16.9 |
| CCCCNc1c(-c2ccc(-c3ccc(C(C)=O)cc3)c(OC)c2)nc2cnccn12.O=C(O)C(F)(F)F | -52.3 |
| O=C(NCc1cccnc1)c1ccc(-c2cccc(Cl)c2Cl)o1 | -47.9 |
| CCCCC(CC)COP(=O)(OCC(CC)CCCC)OCC(CC)CCCC (stereo not shown) | 7.59 |
| COc1ccc(C(=O)NC2CCCCCCC2)cc1OC | 1.54 |
| CC1CCN(S(=O)(=O)c2cc(C(=O)N3CCN(c4ncccn4)CC3)ccc2Br)CC1 | -72.4 |
| CCN1C(=O)C(CC(=O)Nc2c(C)cccc2C)SC1=Nc1ccc(S(N)(=O)=O)cc1 (stereo not shown) | 1.84 |
| COc1ccc(-c2noc(N3CCCC(C(=O)Nc4ccccc4F)C3)n2)cc1 (stereo not shown) | 15.5 |
| Cn1cnnc1SCC(=O)Nc1ccc2nc(SCc3cccc4ccccc34)sc2c1 | 10.3 |
| O=C1ON=C(c2ccccc2)/C1=C/c1ccc(O)c(O)c1 | 10.2 |
| Cc1ccc(-c2nnn(CC(=O)Nc3cccc4c3CCCC4)n2)o1 | -1.13 |
| Cc1ccnc2nc(C(=O)Nc3ccc(N4CCOCC4)cc3)nn12 | 3.61 |
| COc1ccc(N2COC3c4cccc5cccc(c45)C32)cc1 (stereo not shown) | 12 |

| Structure (SMILES) | hERG current change (%, negative = inhibition) at 10uM [%] |
| --- | --- |
| CNC(=S)NNC(=O)c1cc(-c2cccnc2)nc2ccccc12 | 13.3 |
| COc1ccccc1NC(=O)N(CCN(C)C)Cc1cc2cc(C)ccc2[nH]c1=O | -50.2 |
| COc1cc(/C=N/NC(=O)c2ccccn2)ccc1OC(=O)c1cccs1 | -17.2 |
| O=C(CSc1ncccc1C(=O)O)NCCC1=CCCCC1 | -9.55 |
| Cc1nnc(N(C)C(=O)c2ccncc2)s1 | 18.9 |
| COc1ccc(CCNC(=O)CN(c2cc([N+](=O)[O-])ccc2OC)S(C)(=O)=O)cc1 | 6.33 |
| COc1ccc(-c2nnn(CCc3nn[nH]n3)n2)cc1 | 2.97 |
| COc1ccc(C(=O)N2CCc3cc(OC)c(OC)cc3C2c2ccc(OC)c(OC)c2)cc1 (stereo not shown) | -12 |
| CCN1CCN(Cc2ccc(NC(=O)Nc3ccccc3)cc2)CC1 | -6.93 |
| COc1cccc(-n2c(Cc3cc(=O)[nH]c(=O)[nH]3)nnc2SCC(=O)N2CCCCCC2)c1 | 0.34 |
| S=C(NCCc1ccccc1)NCCc1ccccc1 | 17.9 |
| Cc1ccc(S(=O)(=O)C2C(=O)N(C)C3(C)CC2c2ccccc2O3)cc1 (stereo not shown) | 7.14 |
| O=C(/C=C/Nc1ccc(S(=O)(=O)Nc2ncccn2)cc1)c1ccc2ccccc2c1 | 3.84 |
| COc1ccc(CNc2nc3ccccc3n2CCN2CCCCC2)cc1 | -59.7 |
| CC(C)(C)N(NS(=O)(=O)c1ccc(F)cc1)c1ccccc1 | -4.53 |
| Cc1ccc(CC2CC(=O)N(c3cc(C)ccc3C)C2=O)cc1 (stereo not shown) | 7 |
| Cc1cccc(OCC(=O)Nc2ccc3c(c2)OCO3)c1C | 11.6 |
| Cc1ccc(S(=O)(=O)NCC(=O)NCc2cc(=O)n(C)c(=O)n2C)cc1C | 11.2 |
| c1ccc(CCNc2ncnc3ccccc23)cc1 | -43.2 |
| Cc1nc2ccccc2nc(C)c1=NO | 2.01 |
| Cc1ccc2c(c1)Sc1ccccc1CC2=O | -20.9 |
| Cc1ccc(COc2ccc(C)nc2[N+](=O)[O-])cc1 | 12.7 |

| Structure (SMILES) | hERG current change (%, negative = inhibition) at 10uM [%] |
| --- | --- |
| CN(C)C(CNC(=O)c1ccc(S(=O)(=O)N(C)C)cc1)Cc1ccccc1 (stereo not shown) | 8.37 |
| NC(=O)C1=C[C@H](c2ccc(C(F)(F)F)cc2)C[C@H](OCc2ccc(CO)cc2)O1 | -1.13 |
| COc1cc(C(=O)Nc2cccc(NC(=O)c3ccccc3)c2)cc(OC)c1OC | -18.4 |
| COC(=O)C1=C(C)NC(C)=C(C(=O)OC)C1c1ccc(-c2cccc(Cl)c2Cl)o1 | 7.22 |
| CCOc1nc(-c2ccc(OC)cc2)ccc1-c1noc(C)n1 | -2.61 |
| Fc1ccc(CSc2nnc(-c3ccccn3)o2)cc1 | -6.76 |
| Cc1cccc(NC(=S)NNC(=O)c2ccccc2Br)c1 | 14.8 |
| CN(CCNC(=O)C1CCCN(c2ncnc3c2nc2n3CCCCC2)C1)Cc1ccccc1 (stereo not shown) | -29.1 |
| O=C(NCCO)c1cc(-c2cc(C(=O)NCCO)c3ccccc3n2)nc2ccccc12 | 17.4 |
| Cl.ClCCN1C2=NCCCN2c2ccccc21 | -26.4 |
| Cc1cccc(NC(=O)CCC(=O)N/N=C/c2ccncc2)c1 | 7.94 |
| O=C(O)CNS(=O)(=O)/C=C/c1ccccc1 | 11.4 |
| COc1ccc(CSc2nnc(CNS(C)(=O)=O)o2)cc1 | 11.3 |
| C=CCN1C=C2C(=O)C(C)(OC(=O)C3CCCC3)C(=O)C(c3ccccc3)=C2C=C1CCCC(=O)OC (stereo not shown) | -14.5 |
| NS(=O)(=O)c1ccc(NC(=S)NNC(=O)CCC(=O)Nc2ccccc2Cl)cc1 | 5.62 |
| Clc1ccc(-c2nnc(NCc3ccccc3)c3ccccc23)cc1 | -13.3 |
| Cc1ccc(OCC(=O)N/N=C/c2c[nH]c3ccccc23)c([N+](=O)[O-])c1 | -2.63 |
| COC(=O)c1cc(NC(C)=O)ccc1N1CCOCC1 | 24.8 |
| CCCc1cc(-n2ccnc2)n2c(nc3ccccc32)c1C#N | -29.7 |
| COc1ccccc1C(=O)CSc1nccn1C | -11.1 |
| CCOC(=O)c1sc(NN=C(C(=O)OC)C(=O)OC)c(C(=O)OCC)c1C | -1.62 |
| CCN(CC)CCCN1C(=O)C(=O)/C(=C(/O)c2ccc(Cl)cc2)C1c1ccccn1 (stereo not shown) | 12.8 |

| Structure (SMILES) | hERG current change (%, negative = inhibition) at 10uM [%] |
| --- | --- |
| Cc1nn(C)cc1CN(C)S(=O)(=O)c1cccc([N+](=O)[O-])c1 | 16.8 |
| O=C(C1CC1)N1CCN=C1SCc1cccc(C(F)(F)F)c1 | -12 |
| Cc1nc(C(F)(F)F)nc(Nc2ccc(N=Nc3ccccc3)cc2)c1C#N | 3.25 |
| Cc1ccc(CNC(=O)COC(=O)c2ccc(S(=O)(=O)NCc3ccco3)cc2)cc1 | 6.18 |
| COC(=O)c1[nH]c2ccccc2c1NC(=O)CN1CCCc2ccccc21 | -29.4 |
| Cn1c(SCC(=O)NC(=O)NCc2ccccc2)nnc1C(F)(F)F | -13.7 |
| Nc1c(N2CCCCC2)c(=O)[nH]c(=O)n1-c1ccccc1 | 6.37 |
| CC12CCC(C)(c3nc4ccccc4nc31)C2(C)C | 1.63 |
| COCc1nc2ccccc2n1Cc1cccc(C)c1 | -12.8 |
| CC(=O)Oc1cccc(C(=O)Nc2ccccc2NC(=O)c2cccc(OC(C)=O)c2)c1 | 9.7 |
| Cc1nc(C(C)N(C)Cc2nc(Cc3ccccc3F)no2)c(C)s1 (stereo not shown) | 1.78 |
| CS(=O)(=O)Nc1ccccc1C(=O)NC1CC2CCC1C2 (stereo not shown) | -0.846 |
| O=C(CCc1nc(-c2ccccc2Cl)no1)NC1CCCC1 | 15.3 |
| Cc1ccc(C(=O)N2CCN(CCNC(=O)C(=O)NC(C)C)CC2)cc1 | 9.12 |
| COc1ccc(/C=N\NC(=O)c2ccc(F)cc2)cc1COc1cc(F)ccc1[N+](=O)[O-] | -3.68 |
| CNC(=S)N/N=C/c1cc(C)n(-c2ccc(Cl)c(Cl)c2)c1C | -11.5 |
| Cc1ccc2c(c1)C1CN(C)CCC1N2C(=S)Nc1ccc(Cl)cc1Cl (stereo not shown) | -34.2 |
| CCOC(=O)N1CCN(C(=O)C(=O)Nc2sc3c(c2C#N)CC(C)(C)OC3)CC1 | 23.3 |
| c1ccc(-c2csc3ncnc(NCCN4CCOCC4)c23)cc1 | -20.2 |
| CCOc1cc(/C=C2\C(=O)NC(=O)N(C)C2=O)cc([N+](=O)[O-])c1O | 19.7 |
| COc1ccc(OCc2nc3ccccc3[nH]2)cc1 | 5.05 |
| CCCCn1c(N)c(N(CC(C)C)C(=O)c2cccc(-n3cnnn3)c2)c(=O)[nH]c1=O | 8.41 |
